Results reported in PubChem BioAssay (NCATS).
Where “and” joins values, the source holds several entries; their conditions need not be identical. Equal entries are not always repeated. The shares of active, inactive and inconclusive entries below differ from those in the screen. Where the call is inconclusive, the potency comes from a doubtful curve fit. Calls of active or inactive are those of the source. Unless noted, calls follow the shape of the dose curve; as a rule, active = well fitted curve in the direction sought with a large enough effect; inconclusive = small, poorly fitted or top-dose-only effect, or another doubt; inactive = no such curve, though single readings can be large; an effect the other way counts as inactive or inconclusive.

Legend:
[1] = qHTS of pediatric cancer cell lines to identify multiple opportunities for drug repurposing: Primary screen for A673 cells (AID 1347092); settings: A673 Ewing sarcoma viability, CellTiter-Glo ATP luminescence, 48 h; activity change, negative = cytotoxic: at 46 µM (top of the series); also: nearly all actives have a fitted effect of over 45% in size; as to activity change, negative = cytotoxic: % is scaled to controls: 0 for no effect and ±100 for the full control effect
Summary of the method: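 A673 cells (500-1,000 cells/well) were treated 48 hours at 37 degrees C with compounds at 11-point (0.78 nM to 46 µM) or 8-point (0.59 nM to 46 µM) dilutions. Viability read by CellTiter-Glo luminescence; concentration-response curves fitted.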

[2] = qHTS of pediatric cancer cell lines to identify multiple opportunities for drug repurposing: Primary screen for Rh41 cells (AID 1347108); also: nearly all actives have a fitted effect of over 70% in size;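 as to activity change, negative = cytotoxic: luminescence drop marks cytotoxic hits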
Summary of the method: (§1)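 Plated cells (500-1,000 per well, growth media) were allowed to settle for 5 hours, treated with compound dilutions for 48 hours, then lysed with CellTiter-Glo for 15 min at room temperature before luminescence reading.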

[3] = molecular target: Phospholipid hydroperoxide glutathione peroxidase GPX4 (Homo sapiens) (UniProt P36969); assay: Primary qHTS Assay for Inhibitors of Recombinant Selenoprotein Glutathione Peroxidase 4 (GPX4) (AID 1845192); also: nearly all actives have a fitted effect of over 65% in size
UniProt P36969, sequence (P36969 whole entry, looked up): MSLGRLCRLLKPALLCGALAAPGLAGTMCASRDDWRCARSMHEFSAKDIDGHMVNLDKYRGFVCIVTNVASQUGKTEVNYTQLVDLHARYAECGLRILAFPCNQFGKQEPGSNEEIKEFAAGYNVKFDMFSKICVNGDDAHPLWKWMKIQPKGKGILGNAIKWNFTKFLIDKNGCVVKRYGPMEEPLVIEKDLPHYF
Summary of the method: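 qHTS, GR-coupled: GPX4 200 nM + cpd 30 min RT → GSH 1 mM, NADPH 0.5 mM, GR 100 nM → CHP 0.5 mM start; fluor 340/450 at t0 and t15 min; no-enzyme wells as control.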

MKL-1 = assay: qHTS assay to identify novel small-molecules to repurpose for Merkel cell carcinoma treatment (AID 1296009); settings: MCC and control cell lines, CellTiter-Glo viability, 72 h; activity change, negative = cytotoxicity: at 46 µM (top of the series); also: nearly all actives have a fitted effect of over 60% in size
Summary of the method: (§2)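 Luminescence from CellTiter-Glo, read 10 min after addition at room temperature, reported viability following a 72 hr, 37 degree celsius treatment with NPC or MIPE compounds in titration; values normalized to plate controls.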

UISO = assay: as above; settings: MCC and control cell lines, CellTiter-Glo viability, 72 h; activity change, negative = cytotoxicity: at 46 µM (top of the series)
Summary of the method: as §2

CAOV3 = assay: Primary qHTS to identify gynecologic anti-cancer compounds using libraries of approved drugs and bioactive compounds (AID 1345084); settings: Gynecologic cancer cell panel viability, ATPlite luminescence, 48 h; series mostly up to 57.5 µM; also: nearly all actives have a fitted effect of over 55% in size; as to activity change, negative = cytotoxicity: % is scaled to controls: 0 for no effect and ±100 for the full control effect
Summary of the method: (§3)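 In this quantitative HTS, cell killing is estimated from loss of ATP-dependent luciferase light. Cells see five compound concentrations over a 48 h exposure.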

[4] = qHTS of pediatric cancer cell lines to identify multiple opportunities for drug repurposing: Primary screen for BT-37 cells (AID 1347094);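 as to activity change, negative = cytotoxic: plate controls were DMSO for no effect and bortezomib for full effect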
Summary of the method: as §1

CP297 = assay: qHTS profiling for inhibitors of Plasmodium falciparum proliferation (AID 504749); also: nearly all actives have a fitted effect of over 60% in size;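 as to activity, negative = inhibition: 0% = DMSO vehicle and full inhibition = artemisinin control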; settings: P. falciparum in erythrocytes, SYBR Green DNA, 72 h; activity, negative = inhibition: at 28.7 µM (top of the series)
Summary of the method: (§4)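 Fluorescence of SYBR Green-bound parasite DNA, read at 485/535 nm, served as the growth measure. Infected erythrocytes were cultured with compound 72 h; artemisinin (0.29 uM) and DMSO wells defined the normalization range.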

DIV17 = assay: as above; settings: P. falciparum in erythrocytes, SYBR Green DNA, 72 h; series mostly up to 28.7 µM
Summary of the method: as §4

P93_24 = assay: as above; settings: P. falciparum in erythrocytes, SYBR Green DNA, 72 h; series mostly up to 28.7 µM
Summary of the method: as §4

Tov-21-G = assay: Primary qHTS to identify gynecologic anti-cancer compounds using libraries of approved drugs and bioactive compounds (AID 1345084); settings: Gynecologic cancer cell panel viability, ATPlite luminescence, 48 h; activity change, negative = cytotoxicity: at 57.5 µM (top of the series); also: nearly all actives have a fitted effect of over 55% in size; as to activity change, negative = cytotoxicity: % is scaled to controls: 0 for no effect and ±100 for the full control effect
Summary of the method: as §3

astro = assay: Drug repurposing screens with cells derived from glioblastoma tumor samples (AID 1345199); settings: viability, ATP luminescence, 48 h; series mostly up to 45.9 µM; also: nearly all actives have a fitted effect of over 40% in size
Summary of the method: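 Primary testing used CD133+ neurospheres from four GBM patients, seven concentrations, 48 h exposure and ATP-based viability; confirmation added three slower-growing patient lines.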

Tov112D = assay: Primary qHTS to identify gynecologic anti-cancer compounds using libraries of approved drugs and bioactive compounds (AID 1345084); settings: Gynecologic cancer cell panel viability, ATPlite luminescence, 48 h; activity change, negative = cytotoxicity: at 57.5 µM (top of the series); also: nearly all actives have a fitted effect of over 55% in size; as to activity change, negative = cytotoxicity: % is scaled to controls: 0 for no effect and ±100 for the full control effect
Summary of the method: as §3

[5] = qHTS of pediatric cancer cell lines to identify multiple opportunities for drug repurposing: Primary screen for NB1643 cells (AID 1347099); also: nearly all actives have a fitted effect of over 50% in size;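 as to activity change, negative = cytotoxic: plate controls were DMSO neutral control for no effect and bortezomib positive control for full effect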
Summary of the method: as §1

PA-1 = assay: Primary qHTS to identify gynecologic anti-cancer compounds using libraries of approved drugs and bioactive compounds (AID 1345084); settings: Gynecologic cancer cell panel viability, ATPlite luminescence, 48 h; series mostly up to 57.5 µM; also: nearly all actives have a fitted effect of over 55% in size
Summary of the method: as §3

[6] = molecular target: Cytochrome P450 2D6 (Homo sapiens) (UniProt P10635); assay: Cytochrome P450 family 2 subfamily D member 6 (CYP2D6) small molecule antagonists: luciferase biochemical (cell-free) qHTS assay (AID 1645840; active = well fitted curve in the direction sought with a large enough effect in the repeat runs; inconclusive = weak or mixed curves; inactive = no such curve, though single readings can be large; an effect the other way counts as inactive or inconclusive; also: nearly all actives have a fitted effect of over 55% in size)
UniProt P10635, sequence (P10635 whole entry, looked up): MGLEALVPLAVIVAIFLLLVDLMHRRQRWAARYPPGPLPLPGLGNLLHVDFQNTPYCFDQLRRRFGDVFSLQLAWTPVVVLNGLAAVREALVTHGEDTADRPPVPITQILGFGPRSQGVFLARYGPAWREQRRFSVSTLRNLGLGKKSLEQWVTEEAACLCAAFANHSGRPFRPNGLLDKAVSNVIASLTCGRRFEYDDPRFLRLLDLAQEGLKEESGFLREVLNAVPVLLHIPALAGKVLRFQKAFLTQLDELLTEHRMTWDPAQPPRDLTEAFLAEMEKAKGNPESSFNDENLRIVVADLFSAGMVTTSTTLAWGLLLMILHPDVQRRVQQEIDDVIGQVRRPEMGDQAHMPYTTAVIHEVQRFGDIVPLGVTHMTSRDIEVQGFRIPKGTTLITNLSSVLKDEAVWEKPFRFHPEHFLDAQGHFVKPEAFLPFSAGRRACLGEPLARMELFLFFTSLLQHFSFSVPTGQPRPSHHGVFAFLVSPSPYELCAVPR
Summary of the method: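 P450-Glo CYP2D6 system: proluciferin substrate converted by enzyme to luciferin, read by luminescence proportional to activity. Enzyme-substrate mix with compound 10 min at room temperature, then NADPH regeneration 1 h before detection reagent.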

[7] = molecular target: Cytochrome P450 2C9 (Homo sapiens) (UniProt P11712); assay: Cytochrome P450 family 2 subfamily C member 9 (CYP2C9) small molecule antagonists: luciferase biochemical (cell-free) qHTS assay (AID 1645842; active = well fitted curve in the direction sought with a large enough effect in the repeat runs; inconclusive = weak or mixed curves; inactive = no such curve, though single readings can be large; an effect the other way counts as inactive or inconclusive; also: nearly all actives have a fitted effect of over 55% in size)
UniProt P11712, sequence (P11712 whole entry, looked up): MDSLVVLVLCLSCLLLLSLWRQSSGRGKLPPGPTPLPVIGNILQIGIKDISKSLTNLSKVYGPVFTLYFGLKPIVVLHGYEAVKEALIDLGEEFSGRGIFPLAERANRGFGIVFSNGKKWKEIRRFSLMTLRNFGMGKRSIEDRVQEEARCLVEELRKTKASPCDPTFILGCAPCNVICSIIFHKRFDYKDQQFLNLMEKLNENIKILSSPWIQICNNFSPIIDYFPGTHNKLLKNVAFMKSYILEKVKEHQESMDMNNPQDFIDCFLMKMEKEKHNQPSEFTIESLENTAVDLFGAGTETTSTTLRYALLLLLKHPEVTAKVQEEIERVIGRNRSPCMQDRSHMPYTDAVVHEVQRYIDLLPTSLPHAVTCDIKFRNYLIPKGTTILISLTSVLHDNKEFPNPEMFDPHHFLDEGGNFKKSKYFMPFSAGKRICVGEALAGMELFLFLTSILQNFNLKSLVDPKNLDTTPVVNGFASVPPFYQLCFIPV
Summary of the method: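 P450-Glo CYP2C9 system: proluciferin substrate with enzyme in mix containing 0.4% BSA, 10 min at room temperature, then NADPH regeneration solution added and incubated 1 h at 37C. Detection reagent stopped reaction; luminescence read after 20 min as RLU.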

[8] = qHTS of pediatric cancer cell lines to identify multiple opportunities for drug repurposing: Primary screen for LAN-5 cells (AID 1347100);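 as to activity change, negative = cytotoxic: plate controls were DMSO neutral control for no effect and bortezomib positive control for full effect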
Summary of the method: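 Cells (500-1,000/well) in growth media were settled 5 h at 37 degrees C, then given compounds for 48 h. Viability was read as CellTiter-Glo luminescence. Primary runs used MIPE at 11 points (0.78 nM-46 µM) and NPC at 8 points (0.59 nM-46 µM); follow-ups used 11 points.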

Hek293T = assay: Primary qHTS to identify gynecologic anti-cancer compounds using libraries of approved drugs and bioactive compounds (AID 1345084); settings: Gynecologic cancer cell panel viability, ATPlite luminescence, 48 h, control line for the selectivity index; series mostly up to 57.5 µM; also: nearly all actives have a fitted effect of over 55% in size
Summary of the method: as §3
Potency is read from the fitted curve at half-maximal effect; tags tell the direction and shape of the fitted curve.

CCOC(=O)[C@H](CCc1ccccc1)N[C@@H](C)C(=O)N1Cc2ccccc2C[C@H]1C(=O)O
inconclusive: Potency [2] 21.1 µM [cytotoxic, single point] | Potency (MKL-1) 29.9 µM [inhibitor, single point] | Potency (UISO) 33.5 µM [inhibitor, single point]
inactive: Potency [1] | Potency [3] | Potency (CAOV3)

CC(=O)O[C@]1(C(C)=O)CC[C@H]2[C@@H]3C=C(Cl)C4=CC(=O)[C@@H]5C[C@@H]5[C@]4(C)[C@H]3CC[C@@]21C
active: Potency [2] 18.8 µM
inactive: Potency (Tov-21-G)
inconclusive: Potency [4] 38.9 µM [cytotoxic, single point] | Potency [3] 5.08 µM [inhibitor, full curve, poor fit] | Potency (CP297) 13.5 µM [inhibitor, single point] | Potency (DIV17) 21.3 µM [inhibitor, single point] | Potency (P93_24) 15.8 µM [inhibitor, single point] | Potency (MKL-1) 23.7 µM [inhibitor, partial curve, poor fit] | Potency (UISO) 29.9 µM [inhibitor, single point]

CC(C)Cn1cnc2c(N)nc3ccccc3c21
inactive: Potency (DIV17)
inconclusive: Potency (MKL-1) 33.2 µM [inhibitor, single point] | Potency (astro) 17.8 µM [inhibitor, partial curve]

NS(=O)(=O)c1cc(C(=O)NN2C[C@H]3[C@H]4CCC(C4)[C@H]3C2)ccc1Cl
inactive: Potency [2] | Potency (MKL-1) | Potency (UISO) | Potency (Tov112D)

C[N+]1(CC2COC(c3ccccc3)(C3CCCCC3)O2)CCCCC1 (stereo not drawn)
inconclusive: Potency [4] 21.9 µM [cytotoxic, single point] | Potency (UISO) 21.1 µM [inhibitor, single point] | Potency (PA-1) 25.1 µM [cytotoxic, partial curve]
active: Potency (CP297) 6.01 µM | Potency (DIV17) 6.01 µM | Potency (MKL-1) 10.6 µM
inactive: Potency [5]

O=c1cc[nH]c(=S)[nH]1
inconclusive: Potency [2] 23.7 µM [cytotoxic, partial curve, poor fit] | Potency [6] 4.36 µM [inhibitor, full curve] | Potency [7] 2.68 µM [inhibitor, full curve] | Potency (CP297) 4.26 µM [inhibitor, single point]
inactive: Potency (DIV17) | Potency (P93_24) | Potency (CAOV3)
active: Potency [5] 0.001 µM

CCCC(C(=O)OCCN(CC)CC)(c1ccccc1)c1ccccc1
inactive: Potency [8]
inconclusive: Potency [5] 21.1 µM [cytotoxic, partial curve, poor fit] | Potency [2] 13.3 µM [cytotoxic, partial curve] | Potency (CP297) 15.1 µM [inhibitor, single point] | Potency (P93_24) 11.2 µM [inhibitor, single point] | Potency (CAOV3) 39.8 µM [cytotoxic, single point] | Potency (Hek293T) 31.6 µM [cytotoxic, single point] | Potency (PA-1) 39.8 µM [cytotoxic, single point] | Potency (Tov-21-G) 39.8 µM [cytotoxic, single point] | Potency (Tov112D) 35.5 µM [cytotoxic, partial curve] | Potency (astro) 11.2 µM [inhibitor, partial curve]
active: Potency [6] 0.0347 µM | Potency (DIV17) 7.57 µM | Potency (UISO) 26.6 µM

COc1ccc(C(Cl)=C(c2ccc(OC)cc2)c2ccc(OC)cc2)cc1
inactive: Potency [5] | Potency (DIV17) | Potency (MKL-1)
inconclusive: Potency [1] 10.6 µM [cytotoxic, partial curve, poor fit] | Potency [4] 30.9 µM [cytotoxic, single point] | Potency [8] 11.9 µM [cytotoxic, partial curve] | Potency [7] 5.49 µM [inhibitor, full curve] | Potency (P93_24) 12.6 µM [inhibitor, single point]

CCOc1ccccc1C(N)=O
inactive: Potency [4] | Potency [2] | Potency (astro)
inconclusive: Potency [5] 16.8 µM [cytotoxic, single point] | Potency (MKL-1) 33.5 µM [inhibitor, single point] | Potency (UISO) 33.5 µM [inhibitor, single point]

CCc1cc(Cl)c(OC)c(C(=O)NC[C@@H]2CCCN2CC)c1O
inactive: Potency [7]
inconclusive: Potency (astro) 35.5 µM [inhibitor, partial curve] and 11.2 µM [inhibitor, partial curve]

CN(C)CCCN1c2ccccc2CCc2ccccc21
inconclusive: Potency [1] 33.5 µM [cytotoxic, single point] | activity change, negative = cytotoxicity (UISO) -31% [inhibitor] | Potency (Hek293T) 35.5 µM | Potency (PA-1) 44.7 µM | activity change, negative = cytotoxicity (Tov-21-G) -70.4% | Potency (Tov112D) 100 µM | Potency (astro) 11.2 µM [inhibitor, partial curve]

CC(=O)OC/C=C(C)/C=C/C=C(C)/C=C/C1=C(C)CCCC1(C)C
active: Potency [7] 15.5 µM
inconclusive: Potency [6] 43.6 µM [inhibitor, single point] | Potency (MKL-1) 23.7 µM [inhibitor, single point]
inactive: Potency [2] | Potency (UISO) | Potency (CAOV3)

Cc1nc2sccn2c(=O)c1CCN1CCC(=C(c2ccc(F)cc2)c2ccc(F)cc2)CC1
inactive: Potency [5] | Potency [8]
active: Potency (astro) 20 µM
inconclusive: Potency [1] 26.6 µM [cytotoxic, single point] | Potency [7] 24.5 µM [inhibitor, single point] | Potency (CP297) 16.9 µM [inhibitor, single point] | Potency (P93_24) 11.2 µM [inhibitor, single point]

CN[C@H]1CC[C@@H](c2ccc(Cl)c(Cl)c2)c2ccccc21
inconclusive: Potency [1] 21.1 µM [cytotoxic, single point] | Potency [4] 38.9 µM [cytotoxic, single point] | Potency [5] 33.5 µM [cytotoxic, single point] | Potency [8] 33.5 µM [cytotoxic, single point] | Potency [2] 21.1 µM [cytotoxic, single point] | Potency (MKL-1) 26.6 µM [inhibitor, single point] | Potency (UISO) 29.9 µM [inhibitor, single point] | Potency (CAOV3) 28.2 µM [cytotoxic, partial curve, poor fit] | Potency (Hek293T) 39.8 µM [cytotoxic, single point] | Potency (PA-1) 31.6 µM [cytotoxic, single point] | Potency (Tov-21-G) 39.8 µM [cytotoxic, single point] | Potency (Tov112D) 35.5 µM [cytotoxic, single point]
active: Potency (astro) 20 µM

CC1=C(C)C(=O)C(CCCCC#CCCCC#CCO)=C(C)C1=O
inconclusive: Potency [1] 21.1 µM [cytotoxic, single point] | Potency [5] 23.7 µM [cytotoxic, single point] | Potency [8] 21.1 µM [cytotoxic, single point] | Potency (UISO) 26.6 µM [inhibitor, partial curve] | Potency (Hek293T) 8.91 µM [cytotoxic, partial curve] | Potency (astro) 14.1 µM [inhibitor, partial curve]
active: Potency [6] 4.9 µM | Potency (CP297) 15.1 µM
